Measurements as given in PubChem BioAssay AID504466 (National Center for Advancing Translational Sciences (NCATS), 2011).
About 4,200 (1.3%) of roughly 330,000 compounds were called active. This list was built around the results that the source calls inconclusive (neither active nor inactive); the mix of calls is not that of the screen. Calls come from the whole dose curve; as a rule, active = well fitted activation curve with a large enough effect; inconclusive = small, poorly fitted or top-dose-only effect; inactive = no such curve, though single readings can be large or run the other way. Potencies of inconclusive entries are doubtful fits and often do not repeat.

experiment: qHTS screen for small molecules that induce genotoxicity in human embryonic kidney (HEK293T) cells expressing luciferase-tagged ELG1; details: HEK293T ELG1-luciferase reporter, luminescence, 16 h; series mostly up to 46 µM; note: nearly all actives have a fitted effect of over 60% in size
In short: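 Luminescence read-out: rising ELG1-luciferase signal, reflecting elevated ELG1 protein under genetic stress, flags genotoxic compounds. Cells were treated for 16 hr at 37 °C before ONE-Glo detection.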
Potency is the fitted concentration of half-maximal effect; tags give direction and shape of the fitted curve.

SMILES	Potency
COC(=O)c1ccc(NC(=O)c2cc(Cl)ccc2OC)cc1	inconclusive: 23.1 µM [activator, partial curve, poor fit]
CC(C)c1ccc(NC(=O)Nc2cnccn2)cc1	inconclusive: 18.3 µM [activator, partial curve]
COc1ccc(CCNC(=O)c2nn(C)cc2Cl)cc1	inconclusive: 20.6 µM [activator, partial curve, poor fit]
O=C1C=C(Nc2ccc(O)cc2)C(=O)c2ccccc21	inconclusive: 2.91 µM [activator, full curve, poor fit]
O=C1c2cccc3c(N4CCOCC4)c([N+](=O)[O-])cc(c23)C(=O)N1c1cccc2ccccc12	inactive
c1ccc(-n2ncc3c(NCc4ccccn4)ncnc32)cc1	inconclusive: 23.1 µM [activator, single point]
COc1cc(SC)ccc1C(=O)Nc1ccc2c(c1)OCCO2	inconclusive: 0.651 µM [activator, full curve]
CCN(CC)C(=O)Nc1ccc(Br)cc1	inactive
CC(C)CCNC(=O)CN(C(=O)CCC(=O)Nc1nccs1)c1ccc2c(c1)OCCO2	active: 20.6 µM
COc1ccc(-c2cc(C(=O)N3CCOCC3)no2)cc1OC	inconclusive: 16.4 µM [activator, partial curve, poor fit]
Cn1ccc(C(=O)OCC(=O)c2ccccc2)n1	inconclusive: 11.6 µM [activator, single point]
Nn1c(SCC(=O)NC2CCCc3ccccc32)nnc1-c1ccc(Cl)cc1Cl (stereo not given)	inactive
CCC(Sc1nncn1C)C(=O)Nc1nnc(-c2ccccc2Cl)s1 (stereo not given)	inconclusive: 25.9 µM [activator, single point]
Cn1c(NC(=O)/C=C\c2ccccc2)cc(=O)n(C)c1=O	inconclusive: 6.51 µM [activator, partial curve, poor fit]
Cn1c(SCC(=O)Nc2cccc(F)c2)nc2c([nH]c3ccccc32)c1=O	inconclusive: 16.4 µM [activator, partial curve, poor fit]
O=C(/C=C/c1cccc([N+](=O)[O-])c1)c1ccc2c(c1)OCCO2	inconclusive: 29.1 µM [activator, single point]
CN(C)c1ccc(NC(=O)c2ccc(COc3cccc(Cl)c3)o2)cc1	inconclusive: 20.6 µM [activator, single point]
Cc1ccsc1/C=N/NC(=O)c1nnn(-c2nonc2N)c1C(C)C	inactive
N#Cc1c(N)nc2c(c1-c1cccc(O)c1)CCCCCC2	inactive
CSc1ccccc1C(=O)NCCOc1ccccc1C	inactive
CCOc1ccc(NCc2cccn2-c2nnc(N3CCC(C(=O)NCCCN4CC(C)CC(C)C4)CC3)s2)cc1 (stereo not given)	inconclusive: 16.4 µM [activator, partial curve, poor fit]
O=C(Nc1nccc(-c2cccs2)n1)c1cccs1	inconclusive: 20.6 µM [activator, partial curve, poor fit]
O=C(NCc1cccnc1)c1ccccc1NS(=O)(=O)c1ccc(Br)cc1	inactive

SMILES	Potency
CC1(C)CC(=O)/C(=N/Nc2ccc(Cl)cc2)CO1	inconclusive: 5.8 µM [activator, partial curve]
CCN(CC)S(=O)(=O)c1ccc2c(c1)[nH]c(=S)n2CC	inconclusive: 20.6 µM [activator, single point]
CCc1nnc(NC(=O)C=C(C)C)s1	inconclusive: 18.4 µM [activator, single point]
Cc1ccc2c(Cl)c(C(=O)NCC3CCCO3)sc2c1 (stereo not given)	inconclusive: 5.17 µM [activator, partial curve, poor fit]
CCc1nc(C)cn1S(=O)(=O)c1ccc(Cl)c(Cl)c1Cl	inconclusive: 18.4 µM [activator, single point]
O=C(NCCc1csc(-c2ccc(C(F)(F)F)cc2)n1)c1cccs1	inconclusive: 29.1 µM [activator, single point]
CC(C)Oc1ccc(C2CC(=O)N(c3cccc(C(=O)O)c3)C2=O)cc1 (stereo not given)	inconclusive: 18.4 µM [activator, partial curve]
O=C(OCc1nc2ccccc2s1)c1ccco1	inconclusive: 6.51 µM [activator, single point]
O=C(Nc1nc2ccsc2c(=O)s1)c1ccc(Cl)cc1	inconclusive: 0.82 µM [activator, full curve]
Cc1ccc(S(=O)(=O)c2c(O)c3ccc(C(=O)O)cc3[nH]c2=O)cc1	inactive
COc1ccccc1CC(=O)OC(C)C(=O)Nc1ccc(S(=O)(=O)N2CCCCC2)cc1 (stereo not given)	inactive
Clc1ncnc2c1oc1ccccc12	inconclusive: 10.3 µM [activator, partial curve, poor fit]
O=C(Nc1cccc2ccccc12)c1cnccn1	active: 20.6 µM
CCn1c(O)c(C=NC2CCCC(C)C2C)sc1=S (stereo not given)	inconclusive: 20.6 µM [activator, single point]
O=C(CCl)N1CCN(S(=O)(=O)Cc2ccccc2)CC1	inactive
COc1cccc(C(=O)Nc2nnc(S(=O)(=O)N(C)Cc3ccccc3)s2)c1	inactive
Cc1ccc(NC(=O)COc2ccccc2)cc1S(=O)(=O)N1CCCCCC1	inconclusive: 29.1 µM [activator, partial curve, poor fit]
Nc1nn(-c2ccccc2)c(N)c1N=Nc1ccc2c(c1)OCO2	inconclusive: 7.31 µM [activator, partial curve]
COc1ccc(N=C(C)C2=C(O)CSC2=O)cc1	inconclusive: 29.1 µM [activator, single point]
CCOC(=O)c1[nH]c(Cc2[nH]c(C(=O)OCC)c(C)c2CCC(=O)OC)c(CCC(=O)OC)c1C	inactive
Cc1ccc2c(c1)c1nc3ccccc3nc1n2C	inconclusive: 14.6 µM [activator, partial curve, poor fit]
O=C(NCc1ccco1)c1cnn2c(C(F)(F)F)cc(-c3cccs3)nc12	inconclusive: 29.1 µM [activator, partial curve, poor fit]
